B1: B7H41001 mAb (antibody, human IgG1, kappa)
heavy: QLQLQESGPGLVKPSETLSLTCTVSGGSIKSGSYYWGWIRQPPGKGLEWIGNIYYSGSTYYNPSLRSRVTISVDTSKNQFSLKLSSVTAADTAVYYCAREGSYPNQFDPWGQGTLVTVSS[human IgG1 constant region not listed]
light: EIVMTQSPATLSVSPGERATLSCRASQSVSSNLAWYQQKPGQAPRLLIYGASTRATGIPARFSGSGSGTEFTLTISSLQSEDFAVYYCQQYHSFPFTFGGGTKVEIKRTVAAPSVFIFPPSDEQLKSGTASVVCLLNNFYPREAKVQWKVDNALQSGNSQESVTEQDSKDSTYSLSSTLTLSKADYEKHKVYACEVTHQGLSSPVTKSFNRGEC
modifications: most abundant form: C-terminal lysine removed, N-terminal glutamine cyclized to pyroglutamic acid, Asn300 occupied by biantennary core fucosylated glycans
notes: Fully human, fucosylated anti-B7-H4 IgG1 kappa; two heavy chains (450 residues) and two light chains (214 residues); also called unconjugated mAb B7H41001; unconjugated antibody
B2: SGN-B7H4V (antibody, human IgG1, kappa)
heavy: B1 heavy
light: B1 light
modifications: vcMMAE may be attached through cysteine sulfur; positions not given; vcMMAE (MC-Val-Cit-PABC-MMAE, vedotin) attached through cysteine sulfur; positions not given
notes: also called ADC; B7-H4-ADC

Experiments:
human B7-H4 on cells [1] = biological target: T1, human B7-H4 on cells (human, UniProt Q7Z7D3 25-282); assay: flow cytometry saturation binding on SKBR3 cells, right panel
T1 construct: no signal peptide limits are stated; also called hB7-H4; B7-H4-expressing SKBR3 cells
T1 sequence: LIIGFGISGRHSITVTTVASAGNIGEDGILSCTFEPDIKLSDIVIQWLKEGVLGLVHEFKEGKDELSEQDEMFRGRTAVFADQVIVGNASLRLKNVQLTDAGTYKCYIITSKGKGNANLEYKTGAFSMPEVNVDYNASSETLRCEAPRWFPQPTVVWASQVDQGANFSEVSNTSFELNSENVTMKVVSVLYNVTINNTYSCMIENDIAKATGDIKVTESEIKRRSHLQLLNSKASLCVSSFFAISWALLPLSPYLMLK

[2] = biological target: T2, recombinant human B7-H4 protein (B7-H4 extracellular domain Phe29-Ala258 with a C-terminal 10-His tag) (human, UniProt Q7Z7D3 29-258, NHS-biotinylated in the bivalent BLI format only); assay: BLI (Octet HTX), bivalent format: NHS-biotinylated hB7-H4 His antigen on streptavidin (SAX) biosensors, mAb in solution, 37 C, 1:1 fit
T2 construct: also called hB7-H4; hB7-H4 His antigen; not shown: C-terminal 10-His tag
T2 sequence: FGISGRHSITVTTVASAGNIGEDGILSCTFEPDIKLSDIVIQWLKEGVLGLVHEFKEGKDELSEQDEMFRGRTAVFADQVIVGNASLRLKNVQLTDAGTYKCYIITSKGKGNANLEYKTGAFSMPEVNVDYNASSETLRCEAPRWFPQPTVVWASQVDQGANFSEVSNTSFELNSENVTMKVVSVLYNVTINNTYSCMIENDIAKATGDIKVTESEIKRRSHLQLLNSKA

[3] = biological target: T2, recombinant human B7-H4 protein (B7-H4 …); assay: BLI (Octet HTX), monovalent format: mAb captured on anti-human Fc (AHC) biosensors, hB7-H4 His antigen in solution, 30 C, 1:1 fit
[4] = biological target: T3, hscFcRN (biotinylated avi-tagged, fused with monomeric Fc) (human, UniProt P55899 fragment; P61769 fragment, limits assumed, biotin on avi tag); assay: BLI (Octet HTX), biotinylated hscFcRN on streptavidin biosensors, antibody in solution, pH 6.0, 30 C, 1:1 fit
T3 construct: Designed and expressed at Seagen; also called hscFcRN hmFc IHH A avi Biotin; hFcRN
T3 sequence (P55899 24-297 limits assumed, form in doubt, chain 1 of 2): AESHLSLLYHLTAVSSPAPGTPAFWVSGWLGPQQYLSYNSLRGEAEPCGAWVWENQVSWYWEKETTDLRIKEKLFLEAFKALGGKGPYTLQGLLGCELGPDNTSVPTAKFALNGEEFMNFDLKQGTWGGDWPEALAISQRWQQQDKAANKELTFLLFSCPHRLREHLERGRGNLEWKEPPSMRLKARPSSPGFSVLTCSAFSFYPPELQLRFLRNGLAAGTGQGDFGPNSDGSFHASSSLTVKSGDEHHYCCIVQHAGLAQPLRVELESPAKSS
T3 sequence (P61769 21-119 limits assumed, form in doubt, chain 2 of 2, further chain): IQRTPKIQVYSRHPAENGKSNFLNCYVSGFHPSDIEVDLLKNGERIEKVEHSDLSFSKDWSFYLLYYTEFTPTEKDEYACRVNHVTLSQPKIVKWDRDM

[5] = biological target: T2, recombinant human B7-H4 protein (B7-H4 …); assay: BLI (Octet HTX), bivalent format (biotinylated hB7-H4 His on streptavidin biosensors, 37 C) against monovalent format (antibody on anti-human Fc biosensors, 30 C)
human B7-H4 on cells [6] = biological target: T1, human B7-H4 on cells; assay: flow cytometry saturation binding on SKBR3 cells, left panel
[7] = biological target: T2, recombinant human B7-H4 protein (B7-H4 …); assay: BLI (Octet HTX), monovalent format: ADC captured on anti-human Fc (AHC) biosensors, hB7-H4 His antigen in solution, 30 C, 1:1 fit
[8] = biological target: T2, recombinant human B7-H4 protein (B7-H4 …); assay: BLI (Octet HTX), bivalent format: NHS-biotinylated hB7-H4 His antigen on streptavidin (SAX) biosensors, ADC in solution, 37 C, 1:1 fit
[9] = biological target: T3, hscFcRN (biotinylated avi-tagged, fused …); assay: BLI (Octet HTX), biotinylated hscFcRN on streptavidin biosensors, ADC in solution, pH 6.0, 30 C, 1:1 fit
[10] = biological target: T2, recombinant human B7-H4 protein (B7-H4 …); assay: BLI (Octet HTX), bivalent format (biotinylated hB7-H4 His on streptavidin biosensors, 37 C) against monovalent format (ADC on anti-human Fc biosensors, 30 C)

| Binder | EC50 (read off the curve) (human B7-H4 on cells [1]) [nM] | Kd [2] [nM] | Kd [3] [nM] | Kd [4] [nM] | fold enhancement of affinity, bivalent format compared to monovalent format [5] [fold] | EC50 (read off the curve) (human B7-H4 on cells [6]) [nM] | Kd [7] [nM] | Kd [8] [nM] | Kd [9] [nM] | fold enhancement of affinity, bivalent format compared to monovalent format [10] [fold] |
| --- | --- | --- | --- | --- | --- | --- | --- | --- | --- | --- |
| B1 | ~3 | 0.026 | 6.1 | 17.5 | 231 | ~3 | – | – | – | – |
| B2 | ~1 | – | – | – | – | ~2 | 8.7 | 0.022 | 15.6 | 395 |

— patent publication US20230117205A1 (Seagen, published 2023)
